# Measured values from the supplement of paper PMC8728848.
# This is one part of the list.
# B1: rMpL (Macrolepiota procera) (protein)
# chain: MSTQVSSGRTYKITNVIAGTVIDLSGEDNKSIIGYPYHSGKNQQWTFNWTGKAWTLRSASSGSYLGIEGTPAGGTRLVAVNDPFEWHIWRDEANENAFRIFVPFTNYNLDLSGYGDTTPGTPVQLWWTWEGLHQTWTIDRP
# Columns and labels:
# Test in all cases: glycan array binding signal (z-score within array); higher = stronger binding
# Settings in all cases: glycan notation: IUPAC condensed, linker removed
# [1] = molecular target: Fuc(a1-2)Gal6S(b1-3)GlcNAc
# Outline: (§1)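 Glycan array data were curated from 3228 arrays in the Consortium for Functional Glycomics database and kept only where the protein sequence was available. Glycan names were converted to IUPAC-condensed notation, and columns mapping to the same glycan were averaged. The binding signal is a within-array Z-score, averaged across arrays of the same protein sequence at different concentrations or buffers and across linkers. Negative Z-scores can be read as non-binding.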
# [2] = molecular target: Fuc(a1-2)Gal6S(b1-3)GlcNAc6S
# Outline: as §1
# Fuc(a1-2)Gal6S(b1-4)Glc = molecular target: Fuc(a1-2)Gal6S(b1-4)Glc
# Outline: as §1
# [3] = molecular target: Fuc(a1-2)Gal6S(b1-4)Glc6S
# Outline: as §1
# Fuc(a1-2)[Gal(a1-3)]Gal = molecular target: Fuc(a1-2)[Gal(a1-3)]Gal
# Outline: as §1
# [4] = molecular target: Fuc(a1-2)[Gal(a1-3)]Gal(b1-3)GalNAc
# Outline: as §1
# [5] = molecular target: Fuc(a1-2)[Gal(a1-3)]Gal(b1-3)GalNAc(b1-3)Gal(a1-4)Gal(b1-4)Glc
# Outline: as §1
# [6] = molecular target: Fuc(a1-2)[Gal(a1-3)]Gal(b1-3)GlcNAc
# Outline: as §1
# [7] = molecular target: Fuc(a1-2)[Gal(a1-3)]Gal(b1-3)GlcNAc(b1-2)Man(a1-3)[Fuc(a1-2)[Gal(a1-3)]Gal(b1-3)GlcNAc(b1-2)Man(a1-6)]Man(b1-4)GlcNAc(b1-4)GlcNAc
# Outline: as §1
# [8] = molecular target: Fuc(a1-2)[Gal(a1-3)]Gal(b1-3)GlcNAc(b1-2)Man(a1-3)[Fuc(a1-2)[Gal(a1-3)]Gal(b1-3)GlcNAc(b1-2)Man(a1-6)]Man(b1-4)GlcNAc(b1-4)[Fuc(a1-6)]GlcNAc
# Outline: as §1
# [9] = molecular target: Fuc(a1-2)[Gal(a1-3)]Gal(b1-3)GlcNAc(b1-3)GalNAc
# Outline: as §1
# [10] = molecular target: Fuc(a1-2)[Gal(a1-3)]Gal(b1-3)GlcNAc(b1-6)GalNAc
# Outline: as §1
# [11] = molecular target: Fuc(a1-2)[Gal(a1-3)]Gal(b1-4)Glc
# Outline: as §1
# [12] = molecular target: Fuc(a1-2)[Gal(a1-3)]Gal(b1-4)GlcNAc
# Outline: as §1
# [13] = molecular target: Fuc(a1-2)[Gal(a1-3)]Gal(b1-4)GlcNAc(b1-2)Man
# Outline: as §1
# [14] = molecular target: Fuc(a1-2)[Gal(a1-3)]Gal(b1-4)GlcNAc(b1-2)Man(a1-3)[Fuc(a1-2)[Gal(a1-3)]Gal(b1-4)GlcNAc(b1-2)Man(a1-6)]Man(b1-4)GlcNAc(b1-4)GlcNAc
# Outline: as §1
# [15] = molecular target: Fuc(a1-2)[Gal(a1-3)]Gal(b1-4)GlcNAc(b1-2)Man(a1-3)[Fuc(a1-2)[Gal(a1-3)]Gal(b1-4)GlcNAc(b1-2)Man(a1-6)]Man(b1-4)GlcNAc(b1-4)[Fuc(a1-6)]GlcNAc
# Outline: as §1
# [16] = molecular target: Fuc(a1-2)[Gal(a1-3)]Gal(b1-4)GlcNAc(b1-3)GalNAc
# Outline: as §1
# [17] = molecular target: Fuc(a1-2)[Gal(a1-3)]Gal(b1-4)GlcNAc(b1-3)[Fuc(a1-2)[Gal(a1-3)]Gal(b1-4)GlcNAc(b1-6)]GalNAc
# Outline: as §1
# [18] = molecular target: Fuc(a1-2)[Gal(a1-3)]Gal(b1-4)GlcNAc(b1-6)GalNAc
# Outline: as §1
# [19] = molecular target: Fuc(a1-2)[Gal(a1-3)]Gal(b1-4)[Fuc(a1-3)]Glc
# Outline: as §1
# [20] = molecular target: Fuc(a1-2)[Gal(a1-3)]Gal(b1-4)[Fuc(a1-3)]GlcNAc
# Outline: as §1
# [21] = molecular target: Fuc(a1-2)[Gal(a1-3)]Gal(b1-4)[Fuc(a1-3)]GlcNAc(b1-3)GalNAc
# Outline: as §1
# [22] = molecular target: Fuc(a1-2)[Gal(a1-4)]Gal(b1-4)GlcNAc
# Outline: as §1
# [23] = molecular target: Fuc(a1-2)[GalNAc(a1-3)]Gal
# Outline: as §1
# [24] = molecular target: Fuc(a1-2)[GalNAc(a1-3)]Gal(b1-3)GalNAc(a1-3)[Fuc(a1-2)]Gal(b1-4)GlcNAc
# Outline: as §1
# [25] = molecular target: Fuc(a1-2)[GalNAc(a1-3)]Gal(b1-3)GalNAc(b1-3)Gal(a1-4)Gal(b1-4)Glc
# Outline: as §1
# [26] = molecular target: Fuc(a1-2)[GalNAc(a1-3)]Gal(b1-3)GlcNAc
# Outline: as §1
# [27] = molecular target: Fuc(a1-2)[GalNAc(a1-3)]Gal(b1-3)GlcNAc(b1-2)Man(a1-3)[Fuc(a1-2)[GalNAc(a1-3)]Gal(b1-3)GlcNAc(b1-2)Man(a1-6)]Man(b1-4)GlcNAc(b1-4)GlcNAc
# Outline: as §1
# [28] = molecular target: Fuc(a1-2)[GalNAc(a1-3)]Gal(b1-3)GlcNAc(b1-2)Man(a1-3)[Fuc(a1-2)[GalNAc(a1-3)]Gal(b1-3)GlcNAc(b1-2)Man(a1-6)]Man(b1-4)GlcNAc(b1-4)[Fuc(a1-6)]GlcNAc
# Outline: as §1
# [29] = molecular target: Fuc(a1-2)[GalNAc(a1-3)]Gal(b1-3)GlcNAc(b1-3)GalNAc
# Outline: as §1
# [30] = molecular target: Fuc(a1-2)[GalNAc(a1-3)]Gal(b1-3)GlcNAc(b1-6)GalNAc
# Outline: as §1
# [31] = molecular target: Fuc(a1-2)[GalNAc(a1-3)]Gal(b1-4)Glc
# Outline: as §1
# [32] = molecular target: Fuc(a1-2)[GalNAc(a1-3)]Gal(b1-4)GlcNAc
# Outline: as §1
# [33] = molecular target: Fuc(a1-2)[GalNAc(a1-3)]Gal(b1-4)GlcNAc(b1-2)Man
# Outline: as §1
# [34] = molecular target: Fuc(a1-2)[GalNAc(a1-3)]Gal(b1-4)GlcNAc(b1-2)Man(a1-3)[Fuc(a1-2)[GalNAc(a1-3)]Gal(b1-4)GlcNAc(b1-2)Man(a1-6)]Man(b1-4)GlcNAc(b1-4)GlcNAc
# Outline: as §1
# [35] = molecular target: Fuc(a1-2)[GalNAc(a1-3)]Gal(b1-4)GlcNAc(b1-2)Man(a1-3)[Fuc(a1-2)[GalNAc(a1-3)]Gal(b1-4)GlcNAc(b1-2)Man(a1-6)]Man(b1-4)GlcNAc(b1-4)[Fuc(a1-6)]GlcNAc
# Outline: as §1
# [36] = molecular target: Fuc(a1-2)[GalNAc(a1-3)]Gal(b1-4)GlcNAc(b1-3)Gal(b1-4)GlcNAc
# Outline: as §1
# [37] = molecular target: Fuc(a1-2)[GalNAc(a1-3)]Gal(b1-4)GlcNAc(b1-3)Gal(b1-4)GlcNAc(b1-3)Gal(b1-4)GlcNAc
# Outline: as §1
# [38] = molecular target: Fuc(a1-2)[GalNAc(a1-3)]Gal(b1-4)GlcNAc(b1-3)GalNAc
# Outline: as §1
# [39] = molecular target: Fuc(a1-2)[GalNAc(a1-3)]Gal(b1-4)GlcNAc(b1-3)[Fuc(a1-2)[GalNAc(a1-3)]Gal(b1-4)GlcNAc(b1-6)]GalNAc
# Outline: as §1
# [40] = molecular target: Fuc(a1-2)[GalNAc(a1-3)]Gal(b1-4)GlcNAc(b1-6)GalNAc
# Outline: as §1
# [41] = molecular target: Fuc(a1-2)[GalNAc(a1-3)]Gal(b1-4)[Fuc(a1-3)]GlcNAc
# Outline: as §1
# [42] = molecular target: Fuc(a1-2)[GalNAc(a1-3)]Gal(b1-4)[Fuc(a1-3)]GlcNAc(b1-3)GalNAc
# Outline: as §1
# [43] = molecular target: Fuc(a1-2)[GalNAc(a1-4)]Gal(b1-4)GlcNAc
# Outline: as §1
binder,measurement,setting,value
B1,glycan array binding signal (z-score),[1],-0.389
same,glycan array binding signal (z-score),[2],-0.263
same,glycan array binding signal (z-score),Fuc(a1-2)Gal6S(b1-4)Glc,-0.334
same,glycan array binding signal (z-score),[3],-0.428
same,glycan array binding signal (z-score),Fuc(a1-2)[Gal(a1-3)]Gal,-0.36
same,glycan array binding signal (z-score),[4],-0.247
same,glycan array binding signal (z-score),[5],-0.359
same,glycan array binding signal (z-score),[6],-0.235
same,glycan array binding signal (z-score),[7],-0.259
same,glycan array binding signal (z-score),[8],-0.091
same,glycan array binding signal (z-score),[9],-0.18
same,glycan array binding signal (z-score),[10],-0.297
same,glycan array binding signal (z-score),[11],-0.255
same,glycan array binding signal (z-score),[12],-0.352
same,glycan array binding signal (z-score),[13],-0.289
same,glycan array binding signal (z-score),[14],-0.257
same,glycan array binding signal (z-score),[15],-0.062
same,glycan array binding signal (z-score),[16],-0.242
same,glycan array binding signal (z-score),[17],-0.128
same,glycan array binding signal (z-score),[18],-0.314
same,glycan array binding signal (z-score),[19],-0.207
same,glycan array binding signal (z-score),[20],-0.216
same,glycan array binding signal (z-score),[21],-0.313
same,glycan array binding signal (z-score),[22],-0.237
same,glycan array binding signal (z-score),[23],-0.317
same,glycan array binding signal (z-score),[24],-0.307
same,glycan array binding signal (z-score),[25],-0.357
same,glycan array binding signal (z-score),[26],-0.255
same,glycan array binding signal (z-score),[27],-0.361
same,glycan array binding signal (z-score),[28],0.394
same,glycan array binding signal (z-score),[29],-0.124
same,glycan array binding signal (z-score),[30],-0.353
same,glycan array binding signal (z-score),[31],-0.324
same,glycan array binding signal (z-score),[32],-0.328
same,glycan array binding signal (z-score),[33],-0.408
same,glycan array binding signal (z-score),[34],-0.308
same,glycan array binding signal (z-score),[35],-0.044
same,glycan array binding signal (z-score),[36],-0.358
same,glycan array binding signal (z-score),[37],0.045
same,glycan array binding signal (z-score),[38],-0.287
same,glycan array binding signal (z-score),[39],-0.26
same,glycan array binding signal (z-score),[40],-0.414
same,glycan array binding signal (z-score),[41],-0.161
same,glycan array binding signal (z-score),[42],-0.128
same,glycan array binding signal (z-score),[43],-0.866
